Experimental data reported in the supplement of paper PMC4967469.
IC50 is the fitted dose that halves viability relative to control wells, and lower means more sensitive; where the fit passes the top or lowest dose, that dose stands as a limit. The AUC spans the tested range (256-fold, ending at the top dose) of the same fit; the more sensitive the line, the further below 1. For part of these data: A top dose marked as inferred comes from the curve model; the source does not state it. For part of these data: An entry number marks a drug with two screens in the source, which often give different values.

Key:
Test in all cases: Viability of human cancer cell lines after 72 h of drug (GDSC screen)
[1] = compound: CC1=C(/C=C/C(C)=C/C=C/C(C)=C/C(=O)O)C(C)(C)CCC1 [Tretinoin]; settings: top dose 10 µM; top dose inferred
Experimental: (§1)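 Human cancer cell lines in 384-well plates, medium with 10% serum, drug for 72 h over a 256-fold dose range (nine 2-fold or five 4-fold steps up to the top dose). Adherent lines were fixed and stained with the nucleic acid dye Syto60, suspension lines read with resazurin; signal relative to control wells, capped at 0 and 100%. One two-parameter sigmoid per drug and line, fitted in a mixed model over all curves with the slope shared within a line.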

[2] = compound: CCn1c(-c2nonc2N)nc2c(C#CC(C)(C)O)ncc(OC[C@H]3CCCNC3)c21 [GSK690693]; settings: top dose 10.24 µM; top dose inferred
Experimental: as §1

[3] = compound: COc1cc2c(NC3CCN(C(C)C)CC3)nc(C3CCCCC3)nc2cc1OCCCN1CCCC1 [UNC0638]
Experimental: as §1

[4] = compound: COc1ccc(N(C(=O)Oc2c(C)cccc2C)c2ccnc(Nc3ccc(N4CCN(C)CC4)cc3)n2)c(OC)c1 [WH-4-023]; settings: top dose 5.12 µM; top dose inferred
Experimental: as §1

[5] = compound: Cc1cccc(-c2[nH]c(C(C)(C)C)nc2-c2ccc3c(c2)OCO3)n1 [SB-505124]; settings: top dose 10 µM; top dose inferred
Experimental: as §1

[6] = compound: O=C(NCCCNc1nc(Nc2cccc(NC(=O)N3CCCC3)c2)ncc1I)c1cccs1 [BX-795]; settings: top dose 5 µM; top dose inferred
Experimental: as §1

[7] = compound: Oc1cccc(-c2nc(N3CCOCC3)c3oc4ncccc4c3n2)c1 [PI-103]; settings: top dose 10.24 µM
Experimental: as §1

[8] = top dose 20 µM, screen: GDSC drug entry 1236, top dose inferred
[9] = top dose 40 µM, screen: GDSC drug entry 245

| Cell Line | AUC [1] | IC50 [1] | AUC [2] | IC50 [2] | AUC [3, 8] | IC50 [3, 8] | AUC [3, 9] | IC50 [3, 9] | AUC [4] | IC50 [4] | AUC [5] | IC50 [5] | AUC [6] | IC50 [6] | AUC [7] | IC50 [7] |
| --- | --- | --- | --- | --- | --- | --- | --- | --- | --- | --- | --- | --- | --- | --- | --- | --- |
| 8-MG-BA (glioma, adherent) | 0.985 | > 10 µM | 0.89 | > 10.2 µM | 0.761 | 6.7 µM | 0.727 | 10.5 µM | 0.92 | > 5.12 µM | 0.947 | > 10 µM | 0.791 | 2.1 µM | 0.445 | 0.457 µM |
| 697 (lymphoblastic leukaemia, suspension) | 0.923 | > 10 µM | 0.4 | 0.361 µM | 0.743 | 5.19 µM | 0.548 | 3.29 µM | 0.852 | 2.8 µM | 0.986 | > 10 µM | 0.663 | 0.802 µM | 0.091 | 0.0442 µM |
| A3-KAW (B-cell lymphoma, suspension) | 0.982 | > 10 µM | 0.973 | > 10.2 µM | 0.626 | 2.58 µM | 0.659 | 6.24 µM | 0.967 | > 5.12 µM | 0.947 | > 10 µM | 0.851 | 2.69 µM | 0.352 | 0.274 µM |
| A4-Fuk (B-cell lymphoma, suspension) | 0.882 | > 10 µM | 0.955 | > 10.2 µM | 0.812 | 11.3 µM | 0.757 | 14.3 µM | 0.925 | > 5.12 µM | 0.963 | > 10 µM | 0.815 | 2.9 µM | 0.857 | 8.93 µM |
| A101D (melanoma, adherent) | 0.851 | > 10 µM | 0.981 | > 10.2 µM | 0.84 | 18.7 µM | 0.803 | 25.4 µM | 0.85 | > 5.12 µM | 0.94 | > 10 µM | 0.772 | 2.39 µM | 0.981 | > 10.2 µM |
| A253 (head and neck, adherent) | 0.981 | > 10 µM | 0.82 | 5.68 µM | 0.96 | > 20 µM | 0.952 | > 40 µM | 0.965 | > 5.12 µM | 0.988 | > 10 µM | 0.963 | > 5 µM | 0.789 | 4.4 µM |
| A388 (skin, adherent) | 0.98 | > 10 µM | 0.961 | > 10.2 µM | 0.915 | > 20 µM | 0.903 | > 40 µM | 0.878 | > 5.12 µM | 0.94 | > 10 µM | 0.921 | > 5 µM | 0.483 | 0.572 µM |
| A498 (kidney, adherent) | 0.966 | > 10 µM | 0.962 | > 10.2 µM | 0.935 | > 20 µM | 0.972 | > 40 µM | 0.397 | 0.146 µM | 0.945 | > 10 µM | 0.861 | > 5 µM | 0.977 | > 10.2 µM |
| A704 (kidney, adherent) | 0.968 | > 10 µM | 0.988 | > 10.2 µM | 0.891 | > 20 µM |  |  | 0.125 | 0.0215 µM | 0.961 | > 10 µM | 0.865 | 4.19 µM | 0.989 | > 10.2 µM |
| ALL-PO (lymphoblastic leukaemia, suspension) | 0.507 | 0.652 µM | 0.818 | 6.19 µM | 0.811 | 11.4 µM | 0.509 | 2.65 µM | 0.905 | > 5.12 µM | 0.971 | > 10 µM | 0.346 | 0.114 µM | 0.311 | 0.183 µM |
| ALL-SIL (T-cell leukaemia, suspension) | 0.987 | > 10 µM | 0.549 | 0.852 µM | 0.642 | 2.91 µM | 0.492 | 2.39 µM | 0.075 | < 0.02 µM | 0.956 | > 10 µM | 0.749 | 1.43 µM | 0.316 | 0.213 µM |
| AM-38 (glioma, semi-adherent) | 0.925 | > 10 µM | 0.98 | > 10.2 µM | 0.987 | > 20 µM | 0.749 | 13.2 µM | 0.988 | > 5.12 µM | 0.986 | > 10 µM | 0.932 | > 5 µM | 0.297 | 0.169 µM |
| AMO-1 (haematopoietic neoplasm, suspension) | 0.925 | > 10 µM | 0.924 | > 10.2 µM | 0.716 | 4.6 µM | 0.533 | 3.03 µM | 0.991 | > 5.12 µM | 0.973 | > 10 µM | 0.812 | 2.22 µM | 0.474 | 0.548 µM |
| ARH-77 (myeloma, suspension) | 0.952 | > 10 µM | 0.79 | 4.38 µM | 0.794 | 8.8 µM | 0.687 | 8.19 µM | 0.924 | > 5.12 µM | 0.975 | > 10 µM | 0.984 | > 5 µM | 0.176 | 0.0706 µM |
| ATN-1 (T-cell lymphoblastic leukaemia, suspension) | 0.077 | < 0.0391 µM | 0.903 | > 10.2 µM | 0.805 | 9.29 µM | 0.711 | 9.43 µM | 0.95 | > 5.12 µM | 0.976 | > 10 µM | 0.398 | 0.167 µM | 0.484 | 0.58 µM |
| BB49-HNC (head and neck, adherent) | 0.978 | > 10 µM | 0.977 | > 10.2 µM | 0.944 | > 20 µM | 0.942 | > 40 µM | 0.858 | > 5.12 µM | 0.951 | > 10 µM | 0.836 | > 5 µM | 0.976 | > 10.2 µM |
| BC-1 (B-cell lymphoma, suspension) | 0.951 | > 10 µM | 0.942 | > 10.2 µM | 0.791 | 7.56 µM | 0.713 | 8.96 µM | 0.973 | > 5.12 µM | 0.953 | > 10 µM | 0.937 | > 5 µM | 0.354 | 0.271 µM |
